# Reference: the supplement of paper PMC8728848
# This is one part of the list.
# What was measured:
# Assay in all cases: glycan array binding signal (z-score within array); higher = stronger binding
# Conditions in all cases: glycan notation: IUPAC condensed, linker removed
# Neu5Ac(a2-3)Gal = biological target: Neu5Ac(a2-3)Gal
# Procedure, shortened: (§1)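 From the Consortium for Functional Glycomics database, 3228 arrays were curated, keeping only those whose protein sequence was available. Binding is given as a within-array Z-score averaged across arrays sharing a protein sequence and across linkers. Negative Z-scores can be read as non-binding.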
# [1] = biological target: Neu5Ac(a2-3)Gal(b1-3)GalNAc
# Procedure, shortened: as §1
# [2] = biological target: Neu5Ac(a2-3)Gal(b1-3)GalNAc(b1-3)Gal(a1-4)Gal(b1-4)Glc
# Procedure, shortened: as §1
# [3] = biological target: Neu5Ac(a2-3)Gal(b1-3)GalNAc(b1-3)Gal(b1-4)GlcNAc
# Procedure, shortened: as §1
# [4] = biological target: Neu5Ac(a2-3)Gal(b1-3)GalNAc(b1-4)[Neu5Ac(a2-3)]Gal(b1-4)Glc
# Procedure, shortened: as §1
# [5] = biological target: Neu5Ac(a2-3)Gal(b1-3)GalNAc6S
# Procedure, shortened: as §1
# [6] = biological target: Neu5Ac(a2-3)Gal(b1-3)GlcNAc
# Procedure, shortened: as §1
# [7] = biological target: Neu5Ac(a2-3)Gal(b1-3)GlcNAc(b1-3)Gal(b1-3)GlcNAc
# Procedure, shortened: as §1
# [8] = biological target: Neu5Ac(a2-3)Gal(b1-3)GlcNAc6S
# Procedure, shortened: as §1
# [9] = biological target: Neu5Ac(a2-3)Gal(b1-3)[Fuc(a1-4)]GlcNAc
# Procedure, shortened: as §1
# [10] = biological target: Neu5Ac(a2-3)Gal(b1-3)[Fuc(a1-4)]GlcNAc(b1-3)Gal(b1-3)[Fuc(a1-4)]GlcNAc
# Procedure, shortened: as §1
# [11] = biological target: Neu5Ac(a2-3)Gal(b1-3)[Fuc(a1-4)]GlcNAc(b1-3)Gal(b1-4)[Fuc(a1-3)]GlcNAc
# Procedure, shortened: as §1
# [12] = biological target: Neu5Ac(a2-3)Gal(b1-3)[Neu5Ac(a2-3)Gal(b1-4)]GlcNAc
# Procedure, shortened: as §1
# [13] = biological target: Neu5Ac(a2-3)Gal(b1-3)[Neu5Ac(a2-6)]GalNAc
# Procedure, shortened: as §1
# Neu5Ac(a2-3)Gal(b1-4)Glc = biological target: Neu5Ac(a2-3)Gal(b1-4)Glc
# Procedure, shortened: as §1
# [14] = biological target: Neu5Ac(a2-3)Gal(b1-4)GlcNAc
# Procedure, shortened: as §1
# [15] = biological target: Neu5Ac(a2-3)Gal(b1-4)GlcNAc(b1-2)Man(a1-3)[GlcNAc(b1-2)Man(b1-4)GlcNAc(b1-2)Man(a1-6)]Man(b1-4)GlcNAc(b1-4)GlcNAc
# Procedure, shortened: as §1
# [16] = biological target: Neu5Ac(a2-3)Gal(b1-4)GlcNAc(b1-2)Man(a1-3)[Neu5Ac(a2-6)Gal(b1-4)GlcNAc(b1-2)Man(a1-6)]Man(b1-4)GlcNAc(b1-4)GlcNAc
# Procedure, shortened: as §1
# [17] = biological target: Neu5Ac(a2-3)Gal(b1-4)GlcNAc(b1-3)Gal(b1-3)GlcNAc
# Procedure, shortened: as §1
# [18] = biological target: Neu5Ac(a2-3)Gal(b1-4)GlcNAc(b1-3)Gal(b1-4)GlcNAc
# Procedure, shortened: as §1
# [19] = biological target: Neu5Ac(a2-3)Gal(b1-4)GlcNAc(b1-3)Gal(b1-4)GlcNAc(b1-3)Gal(b1-4)GlcNAc
# Procedure, shortened: as §1
# [20] = biological target: Neu5Ac(a2-3)Gal(b1-4)GlcNAc(b1-3)Gal(b1-4)[Fuc(a1-3)]GlcNAc
# Procedure, shortened: as §1
# [21] = biological target: Neu5Ac(a2-3)Gal(b1-4)GlcNAc(b1-3)GalNAc
# Procedure, shortened: as §1
# [22] = biological target: Neu5Ac(a2-3)Gal(b1-4)GlcNAc(b1-6)[Gal(b1-3)]GalNAc
# Procedure, shortened: as §1
# [23] = biological target: Neu5Ac(a2-3)Gal(b1-4)GlcNAc(b1-6)[Neu5Ac(a2-3)Gal(b1-3)]GalNAc
# Procedure, shortened: as §1
# [24] = biological target: Neu5Ac(a2-3)Gal(b1-4)GlcNAc6S
# Procedure, shortened: as §1
# [25] = biological target: Neu5Ac(a2-3)Gal(b1-4)[Fuc(a1-3)]GlcNAc
# Procedure, shortened: as §1
# [26] = biological target: Neu5Ac(a2-3)Gal(b1-4)[Fuc(a1-3)]GlcNAc(b1-3)Gal
# Procedure, shortened: as §1
# [27] = biological target: Neu5Ac(a2-3)Gal(b1-4)[Fuc(a1-3)]GlcNAc(b1-3)Gal(b1-4)GlcNAc
# Procedure, shortened: as §1
# [28] = biological target: Neu5Ac(a2-3)Gal(b1-4)[Fuc(a1-3)]GlcNAc(b1-3)Gal(b1-4)[Fuc(a1-3)]GlcNAc(b1-3)Gal(b1-4)[Fuc(a1-3)]GlcNAc
# Procedure, shortened: as §1
binder,measurement,setting,value
"Neuropilin-2 (Homo sapiens), O60462 (protein) MDMFPLTWVFLALYFSRHQVRGQPDPPCGGRLNSKDAGYITSPGYPQDYPSHQNCEWIVYAPEPNQKIVLNFNPHFEIEKHDCKYDFIEIRDGDSESADLLGKHCGNIAPPTIISSGSMLYIKFTSDYARQGAGFSLRYEIFKTGSEDCSKNFTSPNGTIESPGFPEKYPHNLDCTFTILAKPKMEIILQFLIFDLEHDPLQVGEGDCKYDWLDIWDGIPHVGPLIGKYCGTKTPSELRSSTGILSLTFHTDMAVAKDGFSARYYLVHQEPLENFQCNVPLGMESGRIANEQISASSTYSDGRWTPQQSRLHGDDNGWTPNLDSNKEYLQVDLRFLTMLTAIATQGAISRETQNGYYVKSYKLEVSTNGEDWMVYRHGKNHKVFQANNDATEVVLNKLHAPLLTRFVRIRPQTWHSGIALRLELFGCRVTDAPCSNMLGMLSGLIADSQISASSTQEYLWSPSAARLVSSRSGWFPRIPQAQPGEEWLQVDLGTPKTVKGVIIQGARGGDSITAVEARAFVRKFKVSYSLNGKDWEYIQDPRTQQPKLFEGNMHYDTPDIRRFDPIPAQYVRVYPERWSPAGIGMRLEVLGCDWTDSKPTVETLGPTVKSEETTTPYPTEEEATECGENCSFEDDKDLQLPSGFNCNFDFLEEPCGWMYDHAKWLRTTWASSSSPNDRTFPDDRNFLRLQSDSQREGQYARLISPPVHLPRSPVCMEFQYQATGGRGVALQVVREASQESKLLWVIREDQGGEWKHGRIILPSYDMEYQIVFEGVIGKGRSGEIAIDDIRISTDVPLENCMEPISAFAGENFKVDIPEIHEREGYEDEIDDEYEVDWSNSSSATSGSGAPSTDKEKSWLYTLDPILITIIAMSSLGVLLGATCAGLLLYCTCSYSGLSSRSCTTLENYNFELYDGLKHKVKMNHQKCCSEA",glycan array binding signal (z-score),Neu5Ac(a2-3)Gal,-0.212
same,glycan array binding signal (z-score),[1],-0.714
same,glycan array binding signal (z-score),[2],-0.107
same,glycan array binding signal (z-score),[3],-0.318
same,glycan array binding signal (z-score),[4],-0.367
same,glycan array binding signal (z-score),[5],-0.43
same,glycan array binding signal (z-score),[6],-0.135
same,glycan array binding signal (z-score),[7],-0.476
same,glycan array binding signal (z-score),[8],-0.546
same,glycan array binding signal (z-score),[9],-0.253
same,glycan array binding signal (z-score),[10],0.377
same,glycan array binding signal (z-score),[11],-0.307
same,glycan array binding signal (z-score),[12],0.03
same,glycan array binding signal (z-score),[13],-0.262
same,glycan array binding signal (z-score),Neu5Ac(a2-3)Gal(b1-4)Glc,-0.126
same,glycan array binding signal (z-score),[14],-0.103
same,glycan array binding signal (z-score),[15],-0.909
same,glycan array binding signal (z-score),[16],-0.501
same,glycan array binding signal (z-score),[17],-0.964
same,glycan array binding signal (z-score),[18],-0.122
same,glycan array binding signal (z-score),[19],-0.169
same,glycan array binding signal (z-score),[20],-0.167
same,glycan array binding signal (z-score),[21],-0.64
same,glycan array binding signal (z-score),[22],-0.255
same,glycan array binding signal (z-score),[23],-0.664
same,glycan array binding signal (z-score),[24],0.663
same,glycan array binding signal (z-score),[25],-0.282
same,glycan array binding signal (z-score),[26],-0.587
same,glycan array binding signal (z-score),[27],3.79
same,glycan array binding signal (z-score),[28],-0.375
